Reference: PubChem BioAssay (NCATS)
Values joined by “and” are separate entries in the source; they are usually repeats but may differ in a detail not shown here. Identical values can stand only once. Inconclusive results, whose numbers are uncertain, are shown with a selection of clear calls. For some assays here: A potency beside an inconclusive call is a rough fit, not a confirmed value. Active and inactive are the calls of the source. Unless noted, the call rests on the fitted dose curve; in most records, active means well fitted curve in the direction sought with a large enough effect; inconclusive means small, poorly fitted or top-dose-only effect, or another doubt; inactive means no such curve, though single readings can be large; an effect the other way counts as inactive or inconclusive.

Columns and labels:
[1] = system: Zika virus NS2B-NS3 protease (linked construct); assay: Primary screen NINDS Rhodamine qHTS for Zika virus inhibitors (AID 1347160); further: nearly all actives have a fitted effect of over 55% in size
Method in brief: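 Aprotinin served as in-plate control. Conditions: 25 nM linked NS2B-NS3, pH 8.0 Tris buffer, titrated compounds, 15 min preincubation and 15 min reaction with 1.5 microM Rhod110 substrate at room temperature.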

[2] = Primary redox qHTS assay for identification of artifact compounds. (AID 1845223)
Method in brief: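 Redox-cycling detection via DTT (250 uM final) oxidation coupled to Amplex Red (25 uM)/HRP (250 mU/mL) in HBSS. 15 min preincubation plus 30 min after DTT, room temperature. Ex/Em 525/598 nm; 4-parameter Hill fit against DMSO and 10 uM DA3003.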

[3] = biological target: Glutathione peroxidase 1 (Homo sapiens) (UniProt P07203); assay: Primary qHTS Assay for Inhibitors of Recombinant Selenoprotein Glutathione Peroxidase 1 (GPX1) (AID 1845191); settings: activity, negative = inhibition: at 48.8 µM (top of the series); further: nearly all actives have a fitted effect of over 65% in size
Method in brief: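 GR-coupled readout: NADPH consumption tracked by fluorescence, ex 340/em 450 nm, at t=0 and after 15 min at RT. Final mix 10 nM GPX1, 1 mM GSH, 0.5 mM CHP, 0.5 mM NADPH, 100 nM GR, 0.01% BSA, following 30 min enzyme–compound preincubation.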

[4] = biological target: Phospholipid hydroperoxide glutathione peroxidase GPX4 (Homo sapiens) (UniProt P36969); assay: Primary qHTS Assay for Inhibitors of Recombinant Selenoprotein Glutathione Peroxidase 4 (GPX4) (AID 1845192); further: nearly all actives have a fitted effect of over 65% in size
Method in brief: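 Steps: GPX4 plus compound, 30 min RT; add GR/GSH/NADPH master mix; start with cumene hydroperoxide; read 340/450 nm fluorescence at 0 and 15 min. Finals were 200 nM GPX4, 1 mM GSH, 0.5 mM CHP, 0.5 mM NADPH, 100 nM GR.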

[5] = Primary fluorescence-based thiol-reactive (MSTI) qHTS assay for identification of artifact compounds. (AID 1845221);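 further: thiol-reactive compounds lower the probe fluorescence signal; nearly all actives have a fitted effect of over 65% in size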
Method in brief: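 A multi-concentration qHTS design tested compounds against 4 uM MSTI, pH 7.4 phosphate-buffered saline. Plates were protected from light for 1 h at room temperature before imaging fluorescence.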

[6] = biological target: Cytochrome P450 2C9 (Homo sapiens) (UniProt P11712); assay: Cytochrome P450 family 2 subfamily C member 9 (CYP2C9) small molecule antagonists: luciferase biochemical (cell-free) qHTS assay (AID 1645842; active means well fitted curve in the direction sought with a large enough effect in the repeat runs; inconclusive means weak or mixed curves; inactive means no such curve, though single readings can be large; an effect the other way counts as inactive or inconclusive; further: nearly all actives have a fitted effect of over 55% in size)
Method in brief: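 P450-Glo CYP2C9 system: proluciferin substrate with enzyme in mix containing 0.4% BSA, 10 min at room temperature, then NADPH regeneration solution added and incubated 1 h at 37C. Detection reagent stopped reaction; luminescence read after 20 min as RLU.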

[7] = qHTS of pediatric cancer cell lines to identify multiple opportunities for drug repurposing: Primary screen for SK-N-MC cells (AID 1347093); settings: SK-N-MC viability, CellTiter-Glo luminescence, 48 h; activity change, negative = cytotoxic: at 46 µM (top of the series)
Method in brief: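 Metabolically active cells were quantified by ATP-dependent luminescence (CellTiter-Glo, 15 min at room temperature) following 48 h treatment. Cells had been plated at 500-1,000 per well and settled for 5 h beforehand.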

[8] = qHTS of pediatric cancer cell lines to identify multiple opportunities for drug repurposing: Primary screen for U-2 OS cells (AID 1347096); further: nearly all actives have a fitted effect of over 50% in size
Method in brief: (§1)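 Viability after 48 h compound treatment at 37C, 500-1,000 cells/well, read as ATP luminescence with CellTiter-Glo. Primary screens used 11-point (MIPE, 0.78 nM-46 µM) or 8-point (NPC, 0.59 nM-46 µM) final concentrations; follow-up screens used 11-point dilutions.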

[9] = qHTS of pediatric cancer cell lines to identify multiple opportunities for drug repurposing: Primary screen for BT-12 cells (AID 1347101); further: nearly all actives have a fitted effect of over 25% in size
Method in brief: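 Cells (500-1,000/well) rested 5 h, then received compounds for 48 h; metabolically active cells were measured by CellTiter-Glo luminescence. Final concentrations spanned up to 46 µM (MIPE, 11-point) or 0.59 nM-46 µM (NPC, 8-point) in primary screens, 11-point in follow-ups.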

[10] = qHTS of pediatric cancer cell lines to identify multiple opportunities for drug repurposing: Primary screen for Rh18 cells (AID 1347102); further: nearly all actives have a fitted effect of over 65% in size
Method in brief: as §1

[11] = qHTS of pediatric cancer cell lines to identify multiple opportunities for drug repurposing: Primary screen for Rh30 cells (AID 1347107); further: nearly all actives have a fitted effect of over 75% in size
Method in brief: as §1

[12] = qHTS of pediatric cancer cell lines to identify multiple opportunities for drug repurposing: Primary screen for Rh41 cells (AID 1347108); further: nearly all actives have a fitted effect of over 70% in size
Method in brief: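 Primary screen of approved and investigational compounds on cells in growth media at 37 degrees C, 5% CO2. MIPE set at 11-point and NPC set at 8-point dilutions; viability scored by ATP-based luminescence at 48 hours.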

[13] = biological target: Cytochrome P450 2D6 (Homo sapiens) (UniProt P10635); assay: Cytochrome P450 family 2 subfamily D member 6 (CYP2D6) small molecule antagonists: luciferase biochemical (cell-free) qHTS assay (AID 1645840; active means well fitted curve in the direction sought with a large enough effect in the repeat runs; inconclusive means weak or mixed curves; inactive means no such curve, though single readings can be large; an effect the other way counts as inactive or inconclusive; further: nearly all actives have a fitted effect of over 55% in size)
Method in brief: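 P450-Glo CYP2D6 system: proluciferin substrate converted by enzyme to luciferin, read by luminescence proportional to activity. Enzyme-substrate mix with compound 10 min at room temperature, then NADPH regeneration 1 h before detection reagent.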

MKL-2 = assay: qHTS assay to identify novel small-molecules to repurpose for Merkel cell carcinoma treatment (AID 1296009); settings: MCC and control cell lines, CellTiter-Glo viability, 72 h; activity change, negative = cytotoxicity: at 46 µM (top of the series); further: nearly all actives have a fitted effect of over 60% in size
Method in brief: (§2)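 Dose-response viability screen; 72 hr exposure at 37 degree celsius; CellTiter-Glo added, 10 min room temperature, luminescence read; RLUs scaled between no-cell and DMSO wells.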

UISO = assay: as above; settings: MCC and control cell lines, CellTiter-Glo viability, 72 h; activity change, negative = cytotoxicity: at 46 µM (top of the series)
Method in brief: as §2

WaGa = assay: as above; settings: MCC and control cell lines, CellTiter-Glo viability, 72 h; series mostly up to 46 µM
Method in brief: as §2

[14] = qHTS assay to identify inhibitors of the type 1 interferon - major histocompatibility complex class I in skeletal muscle: Counter screen cell viability and HiBit confirmation (AID 1347412); settings: iHSKM muscle cells + IFN-b, HiBiT or CellTiter-Glo, 24 h; Viability; further: nearly all actives have a fitted effect of over 60% in size
Method in brief: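 Myoblasts (C25cl48, HLA-B HiBiT) seeded in medium without dexamethasone, IFN-b 4 ng/ml added except unstimulated columns; 1 hr later compounds pinned (12-pt 1:3, top 46 uM final). Incubated 24 hrs, lysed 10 min, luminescence measured.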

[15] = qHTS of pediatric cancer cell lines to identify multiple opportunities for drug repurposing: Primary screen for DAOY cells (AID 1347090); settings: DAOY medulloblastoma viability, CellTiter-Glo luminescence, 48 h; activity change, negative = cytotoxic: at 46 µM (top of the series); further: nearly all actives have a fitted effect of over 55% in size
Method in brief: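 Viability measured as metabolically active cells via CellTiter-Glo luminescence following 48 hours of compound exposure, 11-point dilutions in confirmatory testing. 500-1,000 cells/well plated 5 hours before dosing; controls were DMSO and 2.3 µM bortezomib.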

[16] = biological target: Calcium and integrin-binding protein 1 (Homo sapiens) (UniProt Q99828); assay: Primary qHTS for Identification of Calcium Integrin Binding Protein 1 (CIB1) Competitor (AID 1508620)
Method in brief: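 Fluorescence polarization competition: GST-tagged CIB1 (1 uM final) preincubated with compound 15 min at room temperature, then FITC-labelled alphaIIb peptide (100 nM final) added. After 15 min at room temperature, polarization read at Ex 480/Em 540.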

[17] = Primary qHTS for small molecule stabilizers of the endoplasmic reticulum resident proteome: Secreted ER Calcium Modulated Protein (SERCaMP) assay (AID 1508630); settings: SH-SY5Y GLuc-SERCaMP (Gaussia luciferase released on ER calcium loss) secretion, thapsigargin, luminescence; series mostly up to 38.4 µM
Method in brief: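 The SH-SY5Y reporter protocol was run at 3 concentrations up to 38.3 uM (primary) or 11 concentrations (follow-up): 16 h compound, 100 nM thapsigargin for 4 h, then extracellular luciferase luminescence.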

Measured: Potency
Potency means the concentration at half of the fitted maximal effect; tags describe the fitted curve by direction and shape.

UniProt P07203, sequence (P07203 whole entry, looked up): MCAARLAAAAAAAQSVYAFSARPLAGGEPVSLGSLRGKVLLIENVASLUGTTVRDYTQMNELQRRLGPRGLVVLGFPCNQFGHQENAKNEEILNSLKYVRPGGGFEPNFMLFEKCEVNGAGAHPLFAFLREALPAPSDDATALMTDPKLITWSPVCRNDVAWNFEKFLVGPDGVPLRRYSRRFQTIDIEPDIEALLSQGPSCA
UniProt P36969, sequence (P36969 whole entry, looked up): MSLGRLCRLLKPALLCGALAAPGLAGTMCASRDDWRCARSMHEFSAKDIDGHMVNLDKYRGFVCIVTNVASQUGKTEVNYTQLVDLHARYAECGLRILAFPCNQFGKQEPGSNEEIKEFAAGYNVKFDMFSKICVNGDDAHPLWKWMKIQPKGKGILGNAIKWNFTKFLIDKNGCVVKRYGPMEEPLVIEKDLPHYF
UniProt P11712, sequence (P11712 whole entry, looked up): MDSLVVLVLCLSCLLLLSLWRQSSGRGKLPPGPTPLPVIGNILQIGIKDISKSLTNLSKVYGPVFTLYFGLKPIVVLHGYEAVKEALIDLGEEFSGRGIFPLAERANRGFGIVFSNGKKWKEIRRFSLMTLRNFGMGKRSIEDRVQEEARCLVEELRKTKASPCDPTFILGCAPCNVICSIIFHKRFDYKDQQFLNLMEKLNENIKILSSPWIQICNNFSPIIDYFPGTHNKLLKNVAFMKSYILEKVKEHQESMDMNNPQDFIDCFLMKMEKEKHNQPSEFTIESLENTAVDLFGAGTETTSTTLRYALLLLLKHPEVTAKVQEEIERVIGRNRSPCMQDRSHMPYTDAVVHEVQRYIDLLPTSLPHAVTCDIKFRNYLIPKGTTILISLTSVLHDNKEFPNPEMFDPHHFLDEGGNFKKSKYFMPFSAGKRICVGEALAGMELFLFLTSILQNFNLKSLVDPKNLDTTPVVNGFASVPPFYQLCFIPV
UniProt Q99828, sequence (Q99828 whole entry, looked up): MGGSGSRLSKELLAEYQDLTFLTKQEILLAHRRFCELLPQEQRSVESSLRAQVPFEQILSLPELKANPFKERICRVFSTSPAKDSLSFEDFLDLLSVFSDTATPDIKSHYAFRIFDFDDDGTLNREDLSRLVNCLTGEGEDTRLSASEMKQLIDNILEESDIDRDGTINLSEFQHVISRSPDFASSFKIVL
UniProt P10635, sequence (P10635 whole entry, looked up): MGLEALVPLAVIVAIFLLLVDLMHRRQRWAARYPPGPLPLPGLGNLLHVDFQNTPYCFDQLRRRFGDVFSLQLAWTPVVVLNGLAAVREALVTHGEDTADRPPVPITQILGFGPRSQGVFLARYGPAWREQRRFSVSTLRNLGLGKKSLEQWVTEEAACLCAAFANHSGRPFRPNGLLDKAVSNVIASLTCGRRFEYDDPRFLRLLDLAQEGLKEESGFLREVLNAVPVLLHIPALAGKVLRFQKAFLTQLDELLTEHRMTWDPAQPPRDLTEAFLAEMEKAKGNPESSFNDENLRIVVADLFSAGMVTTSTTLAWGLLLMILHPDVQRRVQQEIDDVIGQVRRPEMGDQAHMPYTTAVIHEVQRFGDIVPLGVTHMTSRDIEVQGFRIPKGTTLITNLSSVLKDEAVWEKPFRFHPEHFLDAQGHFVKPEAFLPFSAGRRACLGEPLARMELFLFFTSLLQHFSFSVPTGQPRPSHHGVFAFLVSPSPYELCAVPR

CC(=O)O[C@H]1[C@H](O)C[C@@]2(C)C(CC[C@]3(C)C2CC=C2C4CC(C)(C)CC[C@]4(C(=O)O)CC[C@]23C)C1(C)C (stereo partly drawn)
inconclusive: [1] 14.1 µM [inhibitor, partial curve, poor fit] | [2] 5.82 µM [activator, partial curve]

Cc1[nH]c(/C=C2\C(=O)Nc3cc(-c4ccccc4)ccc32)c(C)c1CCC(=O)O
inconclusive: [3] 28.6 µM [inhibitor, partial curve, poor fit] | [4] 25.5 µM [inhibitor, partial curve, poor fit]
active: [5] 0.67 µM

CN(C)C(=O)c1cc2cnc(Nc3ccc(N4CCNCC4)cn3)nc2n1C1CCCC1
inconclusive: [6] 9.52 µM [inhibitor, partial curve] | [3] 25.5 µM [inhibitor, partial curve] | [5] 7.52 µM [inhibitor, full curve, poor fit]

COc1cc(N2CCN(C)CC2)ccc1Nc1nccc(-c2cn(C)c3cnccc23)n1
inconclusive: [1] 39.8 µM [inhibitor, partial curve, poor fit] | [5] 2.38 µM [inhibitor, full curve]

CC(C)n1nc(-c2cc3cc(O)ccc3[nH]2)c2c(N)ncnc21
inconclusive: [11] 7.5 µM [cytotoxic, partial curve] | [12] 1.06 µM [cytotoxic, full curve] | [13] 15.5 µM [inhibitor, partial curve] | [4] 22.7 µM [inhibitor, partial curve, poor fit] | [2] 2.67 µM [activator, partial curve, poor fit] | [14] 1.76 µM [cytotoxic, full curve]
active: [7] 0.299 µM | [8] 13.3 µM | [9] 1.23 µM | [10] 6.68 µM | [6] 1.95 µM and 1.51 µM | MKL-2 = 8.41 µM | UISO 9.44 µM | WaGa 2.99 µM

Cc1cc(C)cc(C(=O)NOCCCCCC(=O)NO)c1
inconclusive: [5] 3.36 µM [inhibitor, full curve, poor fit]

O=C1CC2(CCCC2)CC(=O)N1CCNCC1COc2ccccc2O1 (stereo not drawn)
inactive: [7] | [9] | UISO

CC(CSC(=O)c1ccccc1)C(=O)N1C[C@@H](Sc2ccccc2)C[C@H]1C(=O)O (stereo partly drawn)
inactive: [8] | [10] | [11]
inconclusive: [4] 11.2 µM [inhibitor, single point]

CCCCCCCCCCCCCCCCCCNC(=O)OC1CCN(C(=O)OC[C@H](COC(=O)N(Cc2cccc[n+]2CC)C(=O)c2ccccc2OC)OC)CC1
active: [7] 8.41 µM | [9] 8.71 µM | MKL-2 = 2.66 µM
inconclusive: [15] 26.6 µM [cytotoxic, single point] | [8] 21.1 µM [cytotoxic, single point] | [10] 23.7 µM [cytotoxic, single point] | [11] 13.3 µM [cytotoxic, single point] | [12] 16.8 µM [cytotoxic, single point] | [6] 38.9 µM [inhibitor, single point]

C=C1CC(=O)C2OC2(C)CC2OC(=O)C(=C)C2C(O)C1OC(=O)/C(C)=C\C (stereo not drawn)
inconclusive: [16] 14.1 µM [inhibitor, full curve, poor fit]

Cc1cc2nc3ccc(=[N+](C)C)cc-3sc2cc1N
active: [15] 13.3 µM | [7] 1.33 µM | [8] 21.1 µM | [10] 2.99 µM | [11] 15 µM | [12] 5.96 µM | [3] 28.6 µM | WaGa 0.668 µM
inconclusive: [16] 39.8 µM [inhibitor, partial curve, poor fit] | [17] 10 µM [inhibitor, partial curve, poor fit] | [4] 35.5 µM [inhibitor, single point]
